Measurements as given in the supplement of paper PMC8728848.
The list shows a part of the results.

Key:
Experiment in all cases: glycan array binding signal (z-score within array); higher = stronger binding
Conditions in all cases: glycan notation: IUPAC condensed, linker removed
[1] = target: Neu5Ac(a2-6)Gal(b1-4)GlcNAc(b1-2)Man(a1-3)[Man(a1-6)]Man(b1-4)GlcNAc(b1-4)GlcNAc
Summary of the method: (§1)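 Glycan array data were curated from 3228 arrays in the Consortium for Functional Glycomics database and kept only where the protein sequence was available. Glycan names were converted to IUPAC-condensed notation, and columns mapping to the same glycan were averaged. The binding signal is a within-array Z-score, averaged across arrays of the same protein sequence at different concentrations or buffers and across linkers. Negative Z-scores can be read as non-binding.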

[2] = target: Neu5Ac(a2-6)Gal(b1-4)GlcNAc(b1-2)Man(a1-3)[Neu5Ac(a2-3)Gal(b1-4)GlcNAc(b1-2)Man(a1-6)]Man(b1-4)GlcNAc(b1-4)GlcNAc
Summary of the method: as §1

[3] = target: Neu5Ac(a2-6)Gal(b1-4)GlcNAc(b1-2)Man(a1-3)[Neu5Ac(a2-6)Gal(b1-4)GlcNAc(b1-2)Man(a1-6)]Man(b1-4)GlcNAc(b1-4)GlcNAc
Summary of the method: as §1

[4] = target: Neu5Ac(a2-6)Gal(b1-4)GlcNAc(b1-2)Man(a1-3)[Neu5Ac(a2-6)Gal(b1-4)GlcNAc(b1-2)Man(a1-6)]Man(b1-4)GlcNAc(b1-4)[Fuc(a1-6)]GlcNAc
Summary of the method: as §1

[5] = target: Neu5Ac(a2-6)Gal(b1-4)GlcNAc(b1-2)Man(a1-6)Man(b1-4)GlcNAc(b1-4)GlcNAc
Summary of the method: as §1

[6] = target: Neu5Ac(a2-6)Gal(b1-4)GlcNAc(b1-2)Man(a1-6)[Gal(b1-4)GlcNAc(b1-2)Man(a1-3)]Man(b1-4)GlcNAc(b1-4)GlcNAc
Summary of the method: as §1

[7] = target: Neu5Ac(a2-6)Gal(b1-4)GlcNAc(b1-2)Man(a1-6)[GlcNAc(b1-2)Man(a1-3)]Man(b1-4)GlcNAc(b1-4)GlcNAc
Summary of the method: as §1

[8] = target: Neu5Ac(a2-6)Gal(b1-4)GlcNAc(b1-2)Man(a1-6)[Man(a1-3)]Man(b1-4)GlcNAc(b1-4)GlcNAc
Summary of the method: as §1

[9] = target: Neu5Ac(a2-6)Gal(b1-4)GlcNAc(b1-2)[Neu5Ac(a2-6)Gal(b1-4)GlcNAc(b1-4)]Man(a1-3)[GlcNAc(b1-4)][Neu5Ac(a2-6)Gal(b1-4)GlcNAc(b1-2)[Neu5Ac(a2-6)Gal(b1-4)GlcNAc(b1-6)]Man(a1-6)]Man(b1-4)GlcNAc(b1-4)GlcNAc
Summary of the method: as §1

[10] = target: Neu5Ac(a2-6)Gal(b1-4)GlcNAc(b1-2)[Neu5Ac(a2-6)Gal(b1-4)GlcNAc(b1-4)]Man(a1-3)[GlcNAc(b1-4)][Neu5Ac(a2-6)Gal(b1-4)GlcNAc(b1-4)Man(a1-6)]Man(b1-4)GlcNAc(b1-4)GlcNAc
Summary of the method: as §1

[11] = target: Neu5Ac(a2-6)Gal(b1-4)GlcNAc(b1-2)[Neu5Ac(a2-6)Gal(b1-4)GlcNAc(b1-6)]Man(a1-6)[Neu5Ac(a2-6)Gal(b1-4)GlcNAc(b1-2)Man(a1-3)][GlcNAc(b1-4)]Man(b1-4)GlcNAc(b1-4)GlcNAc
Summary of the method: as §1

[12] = target: Neu5Ac(a2-6)Gal(b1-4)GlcNAc(b1-3)Gal(b1-3)GlcNAc
Summary of the method: as §1

[13] = target: Neu5Ac(a2-6)Gal(b1-4)GlcNAc(b1-3)Gal(b1-4)GlcNAc
Summary of the method: as §1

[14] = target: Neu5Ac(a2-6)Gal(b1-4)GlcNAc(b1-3)Gal(b1-4)GlcNAc(b1-2)Man(a1-3)[Neu5Ac(a2-6)Gal(b1-4)GlcNAc(b1-3)Gal(b1-4)GlcNAc(b1-2)Man(a1-6)]GalNAc
Summary of the method: as §1

[15] = target: Neu5Ac(a2-6)Gal(b1-4)GlcNAc(b1-3)Gal(b1-4)GlcNAc(b1-3)Gal(b1-4)GlcNAc
Summary of the method: as §1

[16] = target: Neu5Ac(a2-6)Gal(b1-4)GlcNAc(b1-3)Gal(b1-4)GlcNAc(b1-3)Gal(b1-4)GlcNAc(b1-2)Man(a1-3)[Neu5Ac(a2-6)Gal(b1-4)GlcNAc(b1-3)Gal(b1-4)GlcNAc(b1-3)Gal(b1-4)GlcNAc(b1-2)Man(a1-6)]GalNAc
Summary of the method: as §1

[17] = target: Neu5Ac(a2-6)Gal(b1-4)GlcNAc(b1-3)Gal(b1-4)GlcNAc(b1-3)GalNAc
Summary of the method: as §1

[18] = target: Neu5Ac(a2-6)Gal(b1-4)GlcNAc(b1-3)Gal(b1-4)GlcNAc(b1-3)[Neu5Ac(a2-6)Gal(b1-4)GlcNAc(b1-3)Gal(b1-4)GlcNAc(b1-6)]GalNAc
Summary of the method: as §1

[19] = target: Neu5Ac(a2-6)Gal(b1-4)GlcNAc(b1-3)Gal(b1-4)GlcNAc(b1-6)[Gal(b1-3)]GalNAc
Summary of the method: as §1

[20] = target: Neu5Ac(a2-6)Gal(b1-4)GlcNAc(b1-3)Gal(b1-4)[Fuc(a1-3)]GlcNAc(b1-3)Gal(b1-4)[Fuc(a1-3)]GlcNAc
Summary of the method: as §1

[21] = target: Neu5Ac(a2-6)Gal(b1-4)GlcNAc(b1-3)GalNAc
Summary of the method: as §1

[22] = target: Neu5Ac(a2-6)Gal(b1-4)GlcNAc(b1-3)[Neu5Ac(a2-6)Gal(b1-4)GlcNAc(b1-6)]GalNAc
Summary of the method: as §1

[23] = target: Neu5Ac(a2-6)Gal(b1-4)GlcNAc(b1-6)GalNAc
Summary of the method: as §1

[24] = target: Neu5Ac(a2-6)Gal(b1-4)GlcNAc(b1-6)[Gal(b1-3)GlcNAc(b1-3)]Gal(b1-4)Glc
Summary of the method: as §1

[25] = target: Neu5Ac(a2-6)Gal(b1-4)GlcNAc(b1-6)[Gal(b1-3)]GalNAc
Summary of the method: as §1

[26] = target: Neu5Ac(a2-6)Gal(b1-4)GlcNAc6S
Summary of the method: as §1

[27] = target: Neu5Ac(a2-6)GalNAc
Summary of the method: as §1

[28] = target: Neu5Ac(a2-6)GalNAc(b1-4)GlcNAc
Summary of the method: as §1

[29] = target: Neu5Ac(a2-6)GalNAc(b1-4)GlcNAc6S
Summary of the method: as §1

[30] = target: Neu5Ac(a2-6)GlcNAc(b1-4)GlcNAc
Summary of the method: as §1

[31] = target: Neu5Ac(a2-6)GlcNAc(b1-4)GlcNAc(b1-4)GlcNAc
Summary of the method: as §1

B1: Na-CTL-1 (Necator americanus) (protein)
chain: MQRSFLLLLVVLAGAWAVNTTIPLKLMGGFTPMKYQCVGRVSDIWADVLFLIESSDMITKSGFRQVIAFITATTKKMTIGQDEKQTRVGFITYGEEAKLIYDLDHWRSTEKLSDLVQKIPYVKSSGTNIAAAIALANKVFNSPTHRPNVPKVMVIVANGLKKGSQNPIPVATAFKDFGGIIITIEYTQYDNIQVPILKKIASEGYNIRSNDEDFSVRTLTNMLLQANCFCPDHYVPFRVNNPEFGCFVTAKIPSMWRDAAEMCRAVEEGKLVKVENEEKAAFIMKLVGPKKEAWIGLRYYGNKFQWTDGTKLNADDFNLWPEDIKELNGPHCVSMYQDQKDKKYYWRAGKCLEDMRYVCEVQPCSASNYCSEPVFMYRQKHRALLPAPPPPPN
glycan array binding signal (z-score) [1]: -0.343
glycan array binding signal (z-score) [2]: 0.359
glycan array binding signal (z-score) [3]: 0.264
glycan array binding signal (z-score) [4]: 0.041
glycan array binding signal (z-score) [5]: -0.384
glycan array binding signal (z-score) [6]: -0.448
glycan array binding signal (z-score) [7]: -0.648
glycan array binding signal (z-score) [8]: -0.294
glycan array binding signal (z-score) [9]: -0.381
glycan array binding signal (z-score) [10]: -0.144
glycan array binding signal (z-score) [11]: 0.04
glycan array binding signal (z-score) [12]: -0.379
glycan array binding signal (z-score) [13]: -0.169
glycan array binding signal (z-score) [14]: -0.092
glycan array binding signal (z-score) [15]: -0.417
glycan array binding signal (z-score) [16]: 1.11
glycan array binding signal (z-score) [17]: -0.447
glycan array binding signal (z-score) [18]: -0.37
glycan array binding signal (z-score) [19]: -0.555
glycan array binding signal (z-score) [20]: -0.049
glycan array binding signal (z-score) [21]: -0.617
glycan array binding signal (z-score) [22]: -0.117
glycan array binding signal (z-score) [23]: 0.118
glycan array binding signal (z-score) [24]: -0.395
glycan array binding signal (z-score) [25]: 0.22
glycan array binding signal (z-score) [26]: -0.168
glycan array binding signal (z-score) [27]: -0.234
glycan array binding signal (z-score) [28]: -0.138
glycan array binding signal (z-score) [29]: -0.352
glycan array binding signal (z-score) [30]: 0.251
glycan array binding signal (z-score) [31]: 1.95
